Here are results for 90 molecules from PubChem BioAssay AID463173 (ICCB-Longwood Screening Facility, Harvard Medical School, 2010).

Hit rate of the full screen: of about 52,000 compounds, about 1,700 (3.3%) were called active. Rule as the data show it: active = survival mostly below about 52% (no sharp cut-off); inactive = mostly above about 56%. The list shows a part of the results.

The subject of this assay is Wild type. The assay is described as follows: growth inhibition of S. aureus wild type versus tarO mutant, primary screen, teichoic acid synthesis inhibitors, RN4220, OD600 (AID 463173). The note with it: S. aureus RN4220 wild type/DeltatarO growth, OD600, 18 h, active compounds read low, screened at 18.75 µg/mL (by protocol).
`COc1cccc(COC(=O)c2ccc(-c3nnn(Cc4cccc(OC)c4)n3)cc2)c1`: the survival is inactive: 87%.
Next, `COc1cccc(NC(=O)NCCCNc2nc3cc(C)cc(C)c3cc2C#N)c1`: inactive: 101%; `COc1ccc(S(=O)(=O)NCc2cccs2)cc1C(C)(C)C`: inactive: 128%.
Turning to `Cc1ccc(S(=O)(=O)n2nc(-c3ccc(Cl)cc3)nc2NCc2ccccc2)cc1`, the survival was inactive: 72%.
For `Cn1c(-n2cccc2)c(-c2c(-c3ccc(F)cc3)[nH]c3c2c(=O)n(C)c(=O)n3C)c(=O)n(C)c1=O`, the survival is inactive: 83%.
With `COCCCNC(=O)Cn1nc(N2CCN(c3ccccc3)CC2)ccc1=O`, the survival was inactive: 119%.
Next, `CCCSc1oc(-c2ccco2)nc1S(=O)(=O)c1ccc(Br)cc1`: inactive: 53%.
For `COCCn1ccc2c(OCC(=O)Nc3c(C)cc(C)cc3C)cccc2c1=O` the value was inactive: 45%.
Turning to `CC(=O)N1CCc2c(sc3c2c(=O)n(-c2ccc(F)cc2)c(=O)n3Cc2ccc(C#N)cc2)C1`, the survival was inactive: 93%.
Take `CC1CCc2c(sc3nnn(Cc4cccc(C(=O)OC(C)C)c4)c(=O)c23)C1` (stereo not given): the survival is inactive: 85%.
`O=c1[nH]c2ccc(S(=O)(=O)NC3CCCCC3)cc2[nH]1`: the survival was inactive: 115%.
With `CC1=C(c2ccc(C(C)C)cc2)S(=O)(=O)N=C1N1CCC(C(=O)NCc2ccccc2)CC1`, the survival was active: -3%.
Regarding `COc1ccc(CC(=O)Nc2cc(-c3cn4cccnc4n3)ccc2C)cc1OC`, the survival is inactive: 85%.
As for `CCOc1ccccc1CNC(=O)C1CCN(S(=O)(=O)c2c(C)noc2/C=C/c2ccccc2F)CC1`, the survival is inactive: 72%.
On to `CCn1c(C(=O)NCc2ccccc2OC)cc2sccc21`, for which the survival was inactive: 82%.
As to `COc1ccc(-n2ccnc(NCc3cccs3)c2=O)cc1OC`, the survival was inactive: 80%.
Regarding `CCOc1ccc(NC(=O)CSC2=Nc3ccccc3C3=NC(CC(=O)NCc4ccc5c(c4)OCO5)C(=O)N23)cc1` (stereo not given), the survival is inactive: 135%.
Next, `Cc1ccc(S(=O)(=O)c2c(Nc3cccc(Cl)c3)sc(C(=O)c3ccc4c(c3)OCO4)c2N)cc1`: inactive: 97%.
On to `O=C(NCc1ccccc1Cl)c1ccc(NC(=O)N2CCCCc3ccccc32)cc1`, for which the survival was inactive: 77%.
With `Cc1ccc(C(=O)c2oc3ccccc3c2NC(=O)Cc2coc3c(C)c(C)ccc23)cc1`, the survival is inactive: 85%.
For `COc1cc(C)ccc1OCCSc1nnc(-c2ccc(C)cc2)o1` the value was inactive: 74%; for `COc1ccc(-c2nc3ccccc3n2Cc2ccc(Cl)cc2)cc1`, active: 4%.
Consider `O=C(OCc1cc(=O)n2c3c(sc2n1)CCCC3)c1cccc(NC(=O)c2ccccc2F)c1`, for which the survival was inactive: 82%.
For `Cc1cccc(NC(=O)CN(C)S(=O)(=O)c2ccc3c(c2)c(=O)n(C)c(=O)n3C)c1` the value was inactive: 76%.
For `COc1ccccc1C(=O)Nc1ccc(-c2nc3ccccc3s2)c(C)c1` the value was inactive: 82%.
Next, `Cc1cc(Br)ccc1NC(=O)C1(S(=O)(=O)c2ccc(Cl)cc2)CC1`: inactive: 85%; `O=C(NCCS(=O)(=O)N1CCN(c2ccccc2)CC1)C1CC(=O)N(c2ccccc2)C1` (stereo not given): inactive: 71%.
In the case of `CC1CCCCN1CC(=O)N1CCCc2c1c(=O)oc1ccc(OCc3ccccc3)cc21` (stereo not given), the survival is inactive: 43%.
`Cc1ccc(S(=O)(=O)NCc2ccc(/C=C(/C#N)C(=O)NC3CCCCC3)o2)cc1`: the survival is inactive: 109%.
Consider `CCc1ccc(-c2nnn(Cc3nn[nH]n3)n2)cc1`, for which the survival is inactive: 104%.
On to `Cc1ccc(-c2cc(C(=O)N(Cc3ccccc3)Cc3ccco3)no2)cc1F`, for which the survival was inactive: 92%.
With `COc1ccc(S(=O)(=O)N2c3cc(F)ccc3CCC2C)cc1OC` (stereo not given), the survival is inactive: 110%.
For `CCOc1ccc(CCNc2nc3c(-c4ccc(C)cc4)nnn3c3ccccc23)cc1OCC`, the survival was inactive: 81%.
For `Cc1ccc(-c2ccc(=O)n(CC(=O)Nc3ccc(F)c(Cl)c3)n2)cc1C` the value was inactive: 81%; for `CCOc1ccccc1C(=O)Nc1ccc(S(=O)(=O)N2CCCCC2c2cccnc2)cc1` (stereo not given), inactive: 127%; for `COc1ccccc1C(=O)Nc1nnc(S(=O)(=O)N2CCCCCC2)s1`, inactive: 81%.
As for `COc1ccc(-c2nc(CNS(=O)(=O)c3ccc(C)cc3)cs2)cc1`, the survival is inactive: 88%.
Next, `CCN(c1ccccc1)S(C)(=O)=O`: inactive: 101%; `COc1cccc(NC(=O)CSC2=Nc3ccccc3C3=NC(CCC(=O)NCc4ccco4)C(=O)N23)c1` (stereo not given): inactive: 75%.
As for `COC(=O)c1c(C)sc(-c2c(-c3cccc(OC)c3)[nH]c3c2c(=O)[nH]c(=O)n3C)c1O`, the survival is inactive: 67%.
On to `CC(=O)Nc1ccc(S(=O)(=O)NC2(C(F)(F)F)NC(=O)N(c3ccc(Cl)cc3)C2=O)cc1` (stereo not given), for which the survival is inactive: 75%.
Regarding `COc1ccc(C(=O)N2CCc3cc(OC)c(OC)cc3C2COc2ccccc2OC)cc1` (stereo not given), the survival is inactive: 113%.
`CCCCN(CC)C(=O)Nc1ccc2c(c1)N(C)C(=O)c1ccccc1S2`: the survival was inactive: 79%.
Take `CCCn1c(=O)c2sccc2n2c(CCCC(=O)Nc3ccc(C)c(F)c3)nnc12`: the survival is inactive: 94%.
Regarding `COc1ccc(C)c2sc(N(Cc3cccnc3)C(=O)CCc3ccccc3)nc12`, the survival is inactive: 77%.
As for `COc1ccc(-c2noc(CN3CCN(c4ccccc4OC)CC3)n2)cc1OC`, the survival is inactive: 83%.
As to `Cn1c(C2CC2)n[nH]c1=S`, the survival is inactive: 98%.
Next, `Cc1ccc(C(=O)COC(=O)c2cc(-c3ccc(Cl)cc3)nc3ccccc23)cc1`: inactive: 117%; `O=C(NCCO)Nc1c[nH]c2c(Cl)cccc2c1=O`: inactive: 111%; `CCc1cccc2c(C=C(C#N)C#N)cn(CC(=O)NC3CCCC3)c12`: inactive: 104%.
On to `CC1CCN(C(=O)CN(c2ccccc2)S(C)(=O)=O)CC1`, for which the survival was inactive: 115%.
Take `CCc1nnc(SCC(=O)Nc2cc(Cl)c(OC)cc2OC)c2cc3oc(C)cc3n12`: the survival is inactive: 67%.
Take `C1=CC2=Nc3cccc[n+]3CN2C=C1`: the survival is inactive: 120%.
For `COc1cccc(N2CC(NC(=O)COc3ccc4ccccc4c3)CC2=O)c1` (stereo not given) the value was inactive: 94%; for `COc1ccc(OC)c(-c2noc(CSc3nnc(Cc4ccccc4)n3-c3cccc(C)c3)n2)c1`, inactive: 70%.
`Cc1noc2nc(C(=O)O)nc(N3CCCCC3)c12`: the survival is inactive: 73%.
Turning to `CC(=O)c1ccc(NC(=O)CCn2nc(C)c(S(=O)(=O)N3CCC(C)CC3)c2C)cc1`, the survival was active: -6%.
Take `CC1CCC(NC(=O)Cn2ncc3c4ccccc4n(Cc4ccc(Cl)cc4)c3c2=O)CC1` (stereo not given): the survival was inactive: 94%.
With `Cc1ccc(-n2c(=O)c3ccc(C(=O)NCc4ccco4)cc3n(Cc3cccc(Cl)c3)c2=O)cc1`, the survival is inactive: 84%.
Next, `CC(C)c1cnc2c(c1SCc1cccc(C(F)(F)F)c1)c(=O)n(C)c(=O)n2C`: inactive: 85%; `CS(=O)(=O)N(CC(=O)N1CCCC1)c1cccc(Cl)c1Cl`: inactive: 97%.
Regarding `CC(C)CCNC(=O)CSCc1cnn(-c2ccccc2)c1-n1cccc1`, the survival is inactive: 86%.
With `CCc1nc(SCC(=O)Nc2ccc(NC(C)=O)cc2)n[nH]1`, the survival is inactive: 78%.
For the molecule `Cc1ccc(C(c2nnnn2C2CCCC2)N(C)C2CCCCC2)cc1` (stereo not given), the survival is inactive: 107%.
Next, `O=C(Nc1ccc(F)cc1F)c1noc2c1CCc1ccccc1-2`: inactive: 91%; `Cc1cccc(-n2c3nc(=O)n(C)c(=O)c-3cc3c(Cl)cccc32)c1C`: inactive: 79%; `COC(=O)c1ccccc1NC(=O)Cc1noc2ccc(C)cc12`: inactive: 78%.
Next, `O=C(Nc1ccc(Cl)c(Cl)c1)N1CCC(c2ccccc2)C1` (stereo not given): inactive: 71%; `COc1ccc(NC(=O)Cn2c(=O)n(Cc3nc(-c4ccccc4)no3)c(=O)c3cc4c(cc32)OCO4)cc1Cl`: inactive: 93%; `Cc1cccn2c(=O)cc(COc3cccc(NC(=O)c4ccccc4F)c3)nc12`: active: -6%.
For `COc1ccc(Br)cc1CNC(=O)CN1CCSc2ccccc21` the value was inactive: 79%; for `CCc1ccc(NC(=O)CC2C(=O)N(c3ccccc3)C(=O)N2C(C)C)cc1` (stereo not given), active: -6%; for `Cc1cccc(NC(=S)NC(=O)/C=C/c2ccco2)c1`, inactive: 110%.
Take `COc1ccc(CNc2ncnc3c2nnn3C)cc1`: the survival is inactive: 77%.
Turning to `COC(=O)C1=C(C)N(c2ccc(N(C)C)cc2)C(C)=C(C(=O)OC)C1c1ccccc1`, the survival is inactive: 101%.
On to `COc1ccc2c(c1)-c1nc(NC(=O)c3ccc(Cl)cc3)sc1CC2`, for which the survival was inactive: 93%.
Consider `Cc1ccc2oc(-c3ccc(Cl)c(NC(=O)c4ccc(-c5ccccc5[N+](=O)[O-])o4)c3)nc2c1`, for which the survival was inactive: 76%.
For the molecule `Cc1cn(C2CC(O)C(CO)O2)c(=O)[nH]c1=O` (stereo not given), the survival is inactive: 102%.
On to `Cc1nn(CC(=O)NCc2ccc(OC(C)C)cc2)c(=O)c2c(C)n(-c3ccc(Cl)cc3)nc12`, for which the survival was inactive: 81%.
As for `COc1ccc(CN2C(=O)C(NC(=O)c3ccccc3C)(C(F)(F)F)N=C2c2ccccc2)cc1` (stereo not given), the survival is inactive: 81%.
Turning to `Cc1cccc(NC(=O)Cn2cc(C(=O)c3ccco3)c3ccccc32)c1C`, the survival is inactive: 81%.
Regarding `CCc1ccccc1NC(=O)Cn1nnc(C(=O)Nc2ccc(C)c(F)c2)c1N`, the survival was inactive: 88%.
On to `CCCCCOc1ccc(C2c3c(oc4ccccc4c3=O)C(=O)N2c2nc(C)c(C)s2)cc1OCC` (stereo not given), for which the survival is inactive: 74%.
Regarding `CSc1ccc(CCNC(=O)Cn2ncc3c(=O)oc4ccc(C)cc4c32)cc1`, the survival was inactive: 83%.
Consider `CC1(C)CC2CC(C)(CN2C(=O)Cc2ccccc2)C1` (stereo not given), for which the survival is inactive: 110%.
Take `OCCNc1nc2ccccc2s1`: the survival was inactive: 108%.
Consider `COc1ccccc1CCNc1ncnc2c1nnn2C`, for which the survival is inactive: 74%.
As for `COc1ccc(S(=O)(=O)c2c(SC)nn(Cc3ccccc3C)c2NC(C)=O)cc1`, the survival is inactive: 47%.
`COc1ccc(C)cc1NC(=O)c1ccc2c(Cl)c3c(nc2c1)CCC3`: the survival was inactive: 90%.
Regarding `Cn1nc(C(=O)N2CCN(c3ccccc3)CC2)c2c1-c1ccccc1S(=O)(=O)C2`, the survival is inactive: 83%.
